Test results taken from patent US20220389066A1, “POLYPEPTIDES” (Affibody AB, priority 2019, published 2022).
Where a chain is given by its changes, count along the chain named. Values belong to the molecule of their own block, whether it stands above or below them.

How the values were obtained:
HMGB1(disulfide) [1] = biological target: T1, HMGB1(disulfide) (Rattus norvegicus, UniProt P63159); experiment: Attana A200 biosensor binding analysis, HMGB1(disulfide); details: relevant kd (the most represented in %); non-reducing; captured on HSA; 1:1 or 1:2 model
T1 construct: purchased HMGBiotech Srl, Milano, Italy
T1 sequence (P63159 1-215): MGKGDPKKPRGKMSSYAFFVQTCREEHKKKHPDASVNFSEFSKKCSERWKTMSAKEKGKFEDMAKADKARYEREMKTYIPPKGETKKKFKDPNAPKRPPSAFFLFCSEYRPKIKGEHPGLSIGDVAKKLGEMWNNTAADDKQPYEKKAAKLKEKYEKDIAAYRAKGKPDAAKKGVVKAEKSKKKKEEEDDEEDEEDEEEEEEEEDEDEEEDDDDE
Method: (§1) Binding analysis: The Attana A200® biosensor was used to characterize interactions between the dimeric polypeptides (SEQ ID NO:38-48) and HMGB1(red) under reducing conditions and/or HMGB1(disulfide) under non-reducing conditions. The monomeric ZA3812 (SEQ ID NO:35) was included for comparison. The experiment was performed as a capture assay, in which HSA was immobilized on Attana's sensor chip Low-NonSpecific-Binding (LNB). Immobilization was performed using amine coupling. The instrument has two sensor surfaces and HSA was immobilized on both surfaces. Around 110 Hz of HSA was stably immobilized on the surfaces.
(§2) In the kinetic experiment, HBS-EP+/−2 mM DTT was used as running buffer and the flow rate was 25 μl/min at 22° C. In each cycle, one polypeptide was tested against one concentration of HMGB1. […] The analyte HMGB1(reduced) was diluted in HBS-EP+2 mM DTT within a concentration range of 1.33 to 21.4 μg/ml, and the analyte HMGB1(disulfide) was diluted in HBS-EP buffer within a concentration range of 0.62 to 10 μg/ml. Both analytes were subsequently injected for 84 s over both channel A and B, where channel B was used as a blank surface for curve subtraction. Buffer injections were also made for surface subtractions. After dissociation, the surfaces were regenerated with a 30 s injection of 100 mM HCl followed by a 30 s injection of 20 mM NaOH. Data was collected by Attester Software and subsequently processed in the Evaluation Software. To calculate the kinetic parameters (ka and kd) and affinity constant (KD), the experimental data were fitted using a 1:1 or a 1:2 binding model.

HMGB1(red) [2] = biological target: T2, HMGB1(red) (Rattus norvegicus, UniProt P63159); experiment: Attana A200 biosensor binding analysis, HMGB1(red); details: relevant kd (the most represented in %); 2 mM DTT; captured on HSA; 1:1 or 1:2 model
T2 construct: purchased HMGBiotech Srl, Milano, Italy
T2 sequence (P63159 1-215): T1 sequence (P63159 1-215)
Method: as §1, §2

boxA(disulfide) = biological target: T3, boxA(disulfide) (Homo sapiens, UniProt P09429); experiment: Biacore kinetic analysis, Z-ABD captured on HSA, boxA(disulfide); assay type: binding; details: analyte boxA(disulfide); non-reducing; 1:1 model
T3 construct: purchased HMGBiotech Srl, Milano, Italy
T3 sequence (P09429 1-89): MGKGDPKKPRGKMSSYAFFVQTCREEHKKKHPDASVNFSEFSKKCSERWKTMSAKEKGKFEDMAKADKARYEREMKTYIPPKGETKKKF
Method: (§3) Biacore kinetic and specificity analysis: Kinetic constants (ka and kd) and affinities (KD) for HMGB1(red), HMGB1(disulfide), boxA(disulfide) and GST-boxA(red) were determined for the A-box binding Z-ABD polypeptides ZA3812 (SEQ ID NO:35) and ZA3914 (SEQ ID NO:36) (see Example 2), as well as for the HMGB1(red) interaction with the B-box binding polypeptide ZA3975, using a Biacore 2000 instrument (GE Healthcare).
(§4) The experiment was performed as a capture assay, in which human serum albumin (HSA, Novozymes, cat. no. 230-005) was immobilized on the carboxylated dextran layer of one CM5 chip surface (GE Healthcare, cat. no. BR100012) to immobilization levels of approximately 3000 RU. The immobilization was performed using amine coupling chemistry according to the manufacturer's protocol and using HBS-EP (GE Healthcare, cat. no. BR100188) as running buffer. In a first set of experiments, Z-ABD polypeptides were analyzed under non-reducing conditions. One flow cell surface was activated and deactivated for use as blank during ligand and analyte injections. In the kinetic experiment, HBS-EP was used as running buffer and the flow rate was 30 μl/min. The ligand, i.e. the Z-ABD polypeptide, was diluted in HBS-EP buffer to a concentration of 30 nM and injected during 2 min.
(§5) The analyte, i.e. HMGB1(disulfide) or boxA(disulfide), was diluted in HBS-EP buffer within a concentration range of 2.5 to 640 nM and injected during 6 min, followed by dissociation in running buffer for 12 min. After dissociation, the surfaces were regenerated with one injection of 10 mM HCl.
(§6) Kinetic constants were calculated from sensorgrams using the BiaEvaluation software 4.1 (GE Healthcare). The Langmuir 1:1 model was used for fitting of all data except for HMGB1(disulfide), where a model for heterogeneous ligand parallel reactions better represented the experimental data and bulk was set to zero. Double referencing was applied to all data prior to kinetic fit, i.e. responses obtained from a blank surface and from a blank cycle where buffer was injected instead of analyte were subtracted.

GST-boxA(red) = biological target: T4, GST-boxA(red) (Homo sapiens, UniProt P09429); experiment: Biacore kinetic analysis, Z-ABD captured on HSA, GST-boxA(red); assay type: binding; details: analyte GST-boxA(red); 2 mM DTT; 1:1 model
T4 construct: purchased HMGBiotech Srl, Milano, Italy
Method: as §3, §4
(§7) In a second set of experiments, ZA3812 and ZA3914 were analyzed under reducing conditions where 2 mM DTT was included in the sample and running buffer. Analyses were performed as described above, except that HMGB1(red) and GST-boxA(red) were used as targets.
as §6

HMGB1(red) [3] = biological target: T2, HMGB1(red); experiment: Biacore kinetic analysis, Z-ABD captured on HSA, HMGB1(red); assay type: binding; details: analyte HMGB1(red); reducing conditions (DTT); 1:1 model
Method: as §3, §4, §7
In a third experiment, ZA3975 was analyzed for binding to HMGB1(red) under reduced conditions (1.5 mM DTT included in the sample and running buffer). The ligand ZA3975 was diluted in HBS-EP buffer to a concentration of 100 nM and injected during 4 min. The analyte, HMGB1(red), was diluted in HBS-EP buffer to a concentration within the range of 8.3 to 675 nM and injected during 4 min, followed by dissociation in running buffer for 20 min. After dissociation, the surfaces were regenerated with three injections of 10 mM HCl.
as §6

HMGB1(disulfide) [4] = biological target: T1, HMGB1(disulfide); experiment: Biacore kinetic analysis, Z-ABD captured on HSA, HMGB1(disulfide); assay type: binding; details: analyte HMGB1(disulfide); non-reducing; heterogeneous ligand parallel reactions model
Method: as §3, §4, §5, §6

T4 sequence (P09429 with tags, fused parts or gaps): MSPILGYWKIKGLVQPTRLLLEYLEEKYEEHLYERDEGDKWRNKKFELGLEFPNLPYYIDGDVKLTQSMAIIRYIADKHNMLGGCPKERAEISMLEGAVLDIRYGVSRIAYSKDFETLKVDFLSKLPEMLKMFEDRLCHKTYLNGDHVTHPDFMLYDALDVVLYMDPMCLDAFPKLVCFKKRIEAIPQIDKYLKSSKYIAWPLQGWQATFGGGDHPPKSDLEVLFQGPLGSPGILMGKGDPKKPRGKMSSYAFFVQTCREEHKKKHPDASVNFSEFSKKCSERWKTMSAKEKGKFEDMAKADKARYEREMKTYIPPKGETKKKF

B1: ZAZ4057: homodimeric A-box binding polypeptide of ZH27 in fusion with ABD, linker L3 (protein)
chain: AEAKYAKEDWDAFWEIIWLPNLTDAQQRAFIYKLEDDPSQSSELLSEAKKLNDSQAPKASGSLAEAKEAANAELDSYGVSDFYKRLIDKAKTVEGVEALKDAILAALPGTGGGGSAEAKYAKEDWDAFWEIIWLPNLTDAQQRAFIYKLEDDPSQSSELLSEAKKLNDSQAPK
modifications: Engineered HMGB1 binding polypeptide
kd HMGB1 (disulfide) (HMGB1(disulfide) [1]): 0.00065 s⁻¹
kd HMGB1 (red) (HMGB1(red) [2]): 0.0096 s⁻¹

B2: ZAZ4015: heterodimer ZH01/ZH31, format Z(boxA)-ABD-L3-Z(boxB) (protein)
chain: VDAKYAKEDWDAFWEIIWLPNLTDAQQRAFIYKLEDDPSQSSELLSEAKKLNDSQAPKASGSLAEAKEAANAELDSYGVSDFYKRLIDKAKTVEGVEALKDAILAALPGTGGGGSVDAKYAKEAWLAEQEIWQLPNLTEAQFQAFILKLIDDPSQSSELLSEAKKLNDSQAPK
modifications: Engineered HMGB1 binding polypeptide
kd HMGB1 (disulfide) (HMGB1(disulfide) [1]): 0.0013 s⁻¹
kd HMGB1 (red) (HMGB1(red) [2]): 0.0004 s⁻¹

B3: ZZA4054: homodimer of ZH27, format Z(boxA)-L2-Z(boxA)-ABD (protein)
chain: AEAKYAKEDWDAFWEIIWLPNLTDAQQRAFIYKLEDDPSQSSELLSEAKKLNDSQAPKGAPGGGGSTSAEAKYAKEDWDAFWEIIWLPNLTDAQQRAFIYKLEDDPSQSSELLSEAKKLNDSQAPKASGSLAEAKEAANAELDSYGVSDFYKRLIDKAKTVEGVEALKDAILAALP
modifications: Engineered HMGB1 binding polypeptide
notes: homodimer of ZH27, format Z(boxA)-L2-Z(boxA)-ABD
kd HMGB1 (disulfide) (HMGB1(disulfide) [1]): 0.00063 s⁻¹
kd HMGB1 (red) (HMGB1(red) [2]): 0.013 s⁻¹

B5: ZZA4262: heterodimer ZH27/ZH32, format Z(boxB)-L1-Z(boxA)-ABD (protein)
chain: AEAKYAKEAWLAEQEIWQLPNLTEAQFQAFILKLIDDPSQSSELLSEAKKLNDSQAPKGAPGGGGSGGGGSGGGGSTSAEAKYAKEDWDAFWEIIWLPNLTDAQQRAFIYKLEDDPSQSSELLSEAKKLNDSQAPKASGSLAEAKEAANAELDSYGVSDFYKRLIDKAKTVEGVEALKDAILAALP
modifications: Engineered HMGB1 binding polypeptide
notes: heterodimer ZH27/ZH32, format Z(boxB)-L1-Z(boxA)-ABD
kd HMGB1 (disulfide) (HMGB1(disulfide) [1]): 0.00098 s⁻¹

B6: ZA3914: A-box binding Z-ABD polypeptide, ZH 28-ASGS-PP013 (protein)
chain: AEAKYAKEAWQAMEEILWLPNLTNTQQLAFIYKLEDDPSQSSELLSEAKKLNDSQAPKASGSLAEAKEAANAELDSYGVSDFYKRLIDKAKTVEGVEALKDAILAALP
modifications: Engineered HMGB1 binding polypeptide
ka1 (boxA(disulfide)): 170000 M⁻¹ s⁻¹
kd1 (boxA(disulfide)): 0.00015 s⁻¹
ka1 (GST-boxA(red)): 120000 M⁻¹ s⁻¹
kd1 (GST-boxA(red)): 0.0001 s⁻¹
ka1 (HMGB1(red) [3]): 180000 M⁻¹ s⁻¹
kd1 (HMGB1(red) [3]): 0.0011 s⁻¹
ka1 (HMGB1(disulfide) [4]): 180000 M⁻¹ s⁻¹
ka2 (HMGB1(disulfide) [4]): 14000 M⁻¹ s⁻¹
kd1 (HMGB1(disulfide) [4]): 0.025 s⁻¹
kd2 (HMGB1(disulfide) [4]): 9.5e-05 s⁻¹

B8: ZZA4013: heterodimer ZH01/ZH31, format Z(boxB)-L2-Z(boxA)-ABD (protein)
chain: VDAKYAKEAWLAEQEIWQLPNLTEAQFQAFILKLIDDPSQSSELLSEAKKLNDSQAPKGAPGGGGSTSVDAKYAKEDWDAFWEIIWLPNLTDAQQRAFIYKLEDDPSQSSELLSEAKKLNDSQAPKASGSLAEAKEAANAELDSYGVSDFYKRLIDKAKTVEGVEALKDAILAALP
modifications: Engineered HMGB1 binding polypeptide
notes: heterodimer ZH01/ZH31, format Z(boxB)-L2-Z(boxA)-ABD
kd HMGB1 (disulfide) (HMGB1(disulfide) [1]): 0.00066 s⁻¹
kd HMGB1 (red) (HMGB1(red) [2]): 0.00042 s⁻¹

Next, values leading:

kd HMGB1 (disulfide) (HMGB1(disulfide) [1]): 0.00045 s⁻¹
kd HMGB1 (red) (HMGB1(red) [2]): 0.00046 s⁻¹
B4: ZZA4012: heterodimer ZH01/ZH31, format Z(boxB)-L1-Z(boxA)-ABD (protein)
chain: B5 chain with A1V, E2D, A79V, E80D
modifications: Engineered HMGB1 binding polypeptide
notes: heterodimer ZH01/ZH31, format Z(boxB)-L1-Z(boxA)-ABD

ka1 (HMGB1(red) [3]): 2.5e+06 M⁻¹ s⁻¹
kd1 (HMGB1(red) [3]): 0.00028 s⁻¹
B7: ZA3975: B-box binding Z-ABD polypeptide, ZH 32-ASGS-PP013 (protein)
chain: AEAKYAKEAWLAEQEIWQLPNLTEAQFQAFILKLIDDPSQSSELLSEAKKLNDSQAPKASGSLAEAKEAANAELDSYGVSDFYKRLIDKAKTVEGVEALKDAILAALP
modifications: Engineered HMGB1 binding polypeptide

kd HMGB1 (disulfide) (HMGB1(disulfide) [1]): 0.0011 s⁻¹
kd HMGB1 (red) (HMGB1(red) [2]): 0.00049 s⁻¹
B9: ZZA4011: heterodimer ZH01/ZH31, format Z(boxA)-L2-Z(boxB)-ABD (protein)
chain: VDAKYAKEDWDAFWEIIWLPNLTDAQQRAFIYKLEDDPSQSSELLSEAKKLNDSQAPKGAPGGGGSTSVDAKYAKEAWLAEQEIWQLPNLTEAQFQAFILKLIDDPSQSSELLSEAKKLNDSQAPKASGSLAEAKEAANAELDSYGVSDFYKRLIDKAKTVEGVEALKDAILAALP
modifications: Engineered HMGB1 binding polypeptide
notes: heterodimer ZH01/ZH31, format Z(boxA)-L2-Z(boxB)-ABD

kd HMGB1 (disulfide) (HMGB1(disulfide) [1]): 0.0014 s⁻¹
B10: ZZA4261: heterodimer ZH27/ZH32, format Z(boxA)-L2-Z(boxB)-ABD (protein)
chain: B9 chain with V1A, D2E, V69A, D70E
modifications: Engineered HMGB1 binding polypeptide
notes: heterodimer ZH27/ZH32, format Z(boxA)-L2-Z(boxB)-ABD
